Data from the supplement of paper PMC10338343.
± gives the standard deviation. Whole data set: some 3,000 sequences, median “pre-steady-state target cleavage rate” near 0.0079, cut for the highest 2% near 0.2. The entries are a selection whose mix differs from that of the whole data set.

Test system: MILI (PIWIL2) piRISC loaded with piRNA #2 (26 nt)
Experiment: pre-steady-state target cleavage rate (min^-1); MIWI and MILI are mouse PIWI proteins and EfPiwi is from a freshwater sponge; tags in brackets are library labels; higher = faster piRNA-guided slicing of the target
Conditions: guide: piRNA #2 5'p-UUAGGUAACCCAGUAGAUCCAGAGGA; auxiliary factor: 500 nM mouse GTSF1
Procedure, shortened: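 Cleave-'n-Seq reactions paired 0.1 nM transcribed, DNA-blocked target RNA library with 1 nM active affinity-purified piRISC holding one synthetic guide, plus or minus 500 nM GTSF1 partner protein, in HEPES–potassium acetate buffer at 33 °C for 0–8 or 0–960 min. After sequencing of uncleaved targets and normalisation to depth and weakly complementary targets, the pre-steady-state cleavage rate was taken from a burst-and-steady-state fit. Three trials were pooled, and k3 was capped at 0.0001 min^-1.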

Row | Sequence | pre-steady-state target cleavage rate
1 | CUUAACCUCAGGAUCUACAGGGUUACCUAA | 0.085 ± 0.014
2 | CUUAAGGUCUGGAUCUACUGGGUUACCCUAA | 0.0141 ± 0.0067
3 | CUUAAGCUCUGGAUCUACUGGGUUCCCUAA | 0.0477 ± 0.017
4 | CUUAAGGACUGGAUCUACAGGGUUACCAAA | 0.0404 ± 0.0091
5 | CUUAUCCUCGGAUCUACUGGGUUACCUAA | 0.0749 ± 0.03
6 | CUUAUCCUCUGGAUCUACUGGGUUACACUAA | 0.158 ± 0.026
7 | CUUAAGCUCCUGGAUCUACUGGGUUACCUAA | 0.0877 ± 0.027
8 | CUUAAGGAGUGAAUCUACUGGGUUACCUAA | 0.0125 ± 0.0051
9 | CUUAAGCUCUGGAUCUACUGGGUUUACCUAA | 0.0504 ± 0.012
10 | CUUAUCCUCUCGAUCUACAGGGUUACCUAA | 0.141 ± 0.014
11 | CUUAACCACUGGAUCUACUGGGUUACCUUA | 0.0763 ± 0.013
12 | CUUAACCUCUGGAACUACUGGGUUACGUAA | 0.118 ± 0.051
13 | CUUAAGCUCAGGAUCUACAGGGUUACCUAA | 0.0722 ± 0.013
14 | CUUAAGGAGACCUACUCACUGGGUUACCUAA | < 0.0001
15 | CUUAAGGAGUGGAUCUACUGAGUUACCUAA | 0.00781 ± 0.0066
16 | CUUAAGCACUGGAUCUACUGGGAUACCUAA | 0.0251 ± 0.0085
17 | CUUAAGCUCUCGAUCUAGUGGGUUACCUAA | 0.0939 ± 0.018
18 | CUUAUCCUAUGGAUCUACUGGGUUACCUAA | 0.118 ± 0.012
19 | CUUAAGGAGACGCAUCUACUGGGUUACCUAA | 0.0155 ± 0.0092
20 | CUUAACCUUUGGAUCUACUGGGUUACCUAA | 0.112 ± 0.022
21 | CUUAAGCACUGGUUCUACUGGGUUACCUAA | 0.199 ± 0.043
22 | CUUAACGUGUGGAUCUACUGGGUUACCUAA | 0.0797 ± 0.018
23 | CUUAAGGACUGGAUCUACUGGGUUACCUAC [g2:g22:cont:t1C] | 0.0392 ± 0.019
24 | CUUAUCCUCUCGAUCUAGUGGGUUACCUAA | 0.127 ± 0.02

Row | Sequence | pre-steady-state target cleavage rate
25 | CUUAUCCUGUGGAUCUACAGGGUUACCUAA | 0.1 ± 0.012
26 | CUUAAGCUCUGGAUCUACUGGGUAACCUUA | 0.0521 ± 0.016
27 | CUUAAGGUCUGGUUCUACAGGGUUACCUAA | 0.0699 ± 0.01
28 | CUUAUCCUCUGCGAUCUACUGGGUUACCUAA | 0.0876 ± 0.015
29 | CUUAUCCUCUGGCAUCUACUGGGUUACCUAA | 2.56 ± 1.7
30 | CUUAAGCUGAGGAUCUACUGGGUUACCUAA | 0.017 ± 0.0061
31 | CUUAAGGAGACGAUCUACUGGGAUACCUUA | < 0.0001
32 | CUUAACCUCAGGAUCUACUGGGUAACCUAA | 0.0373 ± 0.012
33 | CUUAAGGAGACCUACUUCAGGGUUACCUAA | < 0.0001
34 | CUUAAGCUCUGGAUCUACUGGGAUACGUAA | 0.0118 ± 0.0052
35 | CUUAACCUGUGGAUGUACUGGGUUACCUAA | 0.0757 ± 0.024
36 | CUUAAGCUGUGGAUCUACUGGGUUACGUAA | 0.00993 ± 0.0057
37 | CUUAAGCUCUGGAUCUACUGGGUUACCUAU [g2:g24:cont:t1U] | 0.0526 ± 0.013
38 | CUUAACCUCUGGAUCUACUGGGUUACCAAA | 0.119 ± 0.027
39 | CUUAAGCUGUGGAUCUACUGGGAUACCUAA | 0.0121 ± 0.008
40 | CUUAAGGAGAGGAUCCACUGGGUUACCUAA | 0.00829 ± 0.0031
41 | CUUAAGGACUGGAUGUACAGGGUUACCUAA | 0.028 ± 0.013
42 | CUUAACCUCUGGAUCUAGUGCGUUACCUAA | 0.00446 ± 0.0037
43 | CUUAAGCUCUGGAUCUACAGGGUUACCAAA | 0.0444 ± 0.0094
44 | CUUAAGCUCUGGAUCUACUGGGUGACCUAA | 0.0391 ± 0.0094
45 | CUUAAGGAGUGGAUCUACUGGGUUACCUAG [g2:g21:cont:t1G] | 0.0456 ± 0.013
46 | CUUAUCCUGUGGAUCUACUGGGUUACCUUA | 0.0682 ± 0.013
47 | CUUAAGGAGACCUAGAUGUGGGUGUACCUAA | < 0.0001
48 | CUUAUCCUCAUGGAUCUACUGGGUUACCUAA | 0.0555 ± 0.014

Row | Sequence | pre-steady-state target cleavage rate
49 | CUUAAGGUCUGGAUCUACUGGGUUUCCUUA | 0.0192 ± 0.0066
50 | CUUAAGGACUGGAUAUACUGGGUUACCUAA | 0.0382 ± 0.018
51 | CUUAAGGACUGGAUCUACUGGGUUACCUCA | 0.0211 ± 0.012
52 | CUUAUCCUCUGGAUCUACUGGGUUAGCAAA | 0.0899 ± 0.026
53 | CUUAAGCUCUGGAUCUACUUGGUUACCUAA | < 0.0001
54 | CUUAUCGUCUGGAUCUUCUGGGUUACCUAA | 0.0438 ± 0.011
55 | CUUAAGGUCUGGAUCUACUGGGGUACCUAA | 0.0151 ± 0.0067
56 | CUUAUCCUUUGGAUCUACUGGGUUACCUAA | 0.112 ± 0.021
57 | CUUAUCCUCUGGAUCUACUCGGUUAGCUAA | < 0.0001
58 | CUUAAGCACUGGAUCUACUGGGUUACGUAA | 0.028 ± 0.0099
59 | CUUAUCCACUGGAUCUACUGGGUUUCCUAA | 0.123 ± 0.034
60 | CUUAAGCUCUGGAUCUACUGGGUUAACUAA | 0.095 ± 0.017
61 | CUUAACCUCUGGAUCUACUGGGUUACCUAC [g2:g25:cont:t1C] | 0.0951 ± 0.016
62 | CUUAUCCUCUGGAUCUACUGGGUUACCUAA [g2:g26:cont:t1A] | 0.125 ± 0.023
63 | CUUAAGCUCUGGAUCUACGGGGUUACCUAA | 0.0564 ± 0.0096
64 | CUUAACCUCACGAUCUACUGGGUUACCUAA | 0.0838 ± 0.019
65 | CUUAUCCUCUGGAUCUACUGGGUUACGAUA | 0.0863 ± 0.018
66 | CUUAAGGAGAUGAUCUACUGGGUUACCUAA | 0.00468 ± 0.0027
67 | CUUAAGGUCUGGAUCUAGUGGGUUACCUAA | 0.0754 ± 0.011
68 | CUUAUCCUCUGGAUCUACAGGGUAACCUAA | 0.0485 ± 0.0099
69 | CUUAAGGUCUGGAACUACUGGGUUACCUUA | 0.0302 ± 0.012
70 | CUUAAGGUCUGUGAUCUACUGGGUUACCUAA | 0.0319 ± 0.012
71 | CUUAACCUUGGAUCUACUGGGUUACCUAA | 0.134 ± 0.041
